Publication PMC4336329 (PLoS ONE, 2015)
Screen size: about 310,000 compounds; about 14,000 (4.5%) showed an effect of 50% or more. Effects have a minus sign here. The list shows a part of the results.

target: human ether-à-go-go-related gene (hERG) potassium channel (human, UniProt Q12809); test: primary screen, population patch clamp on CHO cells stably expressing hERG
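Note: peak tail current of the secondary pulse compared with the same well before compound.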

Chain of human ether-à-go-go-related gene (hERG) potassium channel (Q12809 whole entry, looked up): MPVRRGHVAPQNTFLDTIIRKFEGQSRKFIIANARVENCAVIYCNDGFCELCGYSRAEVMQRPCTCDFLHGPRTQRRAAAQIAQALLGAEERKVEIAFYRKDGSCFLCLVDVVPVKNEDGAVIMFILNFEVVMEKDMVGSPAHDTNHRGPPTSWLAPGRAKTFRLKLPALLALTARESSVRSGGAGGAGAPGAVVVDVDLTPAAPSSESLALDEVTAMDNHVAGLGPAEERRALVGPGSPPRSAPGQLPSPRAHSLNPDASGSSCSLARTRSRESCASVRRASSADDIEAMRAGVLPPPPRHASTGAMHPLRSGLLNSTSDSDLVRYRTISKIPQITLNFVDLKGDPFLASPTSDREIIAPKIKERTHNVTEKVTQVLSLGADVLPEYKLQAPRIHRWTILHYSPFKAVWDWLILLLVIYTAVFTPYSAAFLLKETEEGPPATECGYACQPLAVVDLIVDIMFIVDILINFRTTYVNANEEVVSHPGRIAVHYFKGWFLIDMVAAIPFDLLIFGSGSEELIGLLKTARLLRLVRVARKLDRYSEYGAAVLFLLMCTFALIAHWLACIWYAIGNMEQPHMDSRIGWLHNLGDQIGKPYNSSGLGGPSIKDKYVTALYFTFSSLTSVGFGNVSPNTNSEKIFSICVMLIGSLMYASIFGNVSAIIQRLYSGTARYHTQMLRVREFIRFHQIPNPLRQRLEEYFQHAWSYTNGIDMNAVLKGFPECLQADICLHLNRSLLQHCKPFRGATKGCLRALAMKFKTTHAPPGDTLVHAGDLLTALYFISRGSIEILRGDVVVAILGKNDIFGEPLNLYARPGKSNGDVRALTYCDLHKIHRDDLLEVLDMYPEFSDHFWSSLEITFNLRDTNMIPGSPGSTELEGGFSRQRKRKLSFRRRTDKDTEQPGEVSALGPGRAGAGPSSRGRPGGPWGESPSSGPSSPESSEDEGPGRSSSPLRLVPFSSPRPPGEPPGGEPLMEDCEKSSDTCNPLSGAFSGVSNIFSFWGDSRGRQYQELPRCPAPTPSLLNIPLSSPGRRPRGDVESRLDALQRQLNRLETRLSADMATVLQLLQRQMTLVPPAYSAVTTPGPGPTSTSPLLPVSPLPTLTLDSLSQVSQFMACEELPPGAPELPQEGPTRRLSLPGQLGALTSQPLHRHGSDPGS

**Q.** With `Cc1cccc(C(=O)NNC(=O)c2ccc(NC(=O)C(C)(C)C)cc2)c1` as the compound, how does the “hERG current change (%, negative = inhibition) at 10uM” value read?
**A.** 30%

**Q.** Which “hERG current change (%, negative = inhibition) at 10uM” value does the source give for `Cc1cc(/C=N/n2cnnc2)c(C)n1-c1ccc(OCc2ccc(F)cc2)cc1` here?
**A.** 6.48%

**Q.** `Cc1ccc(NS(=O)(=O)c2ccc(Cl)c(NC(=S)NC(=O)C3CCCCC3)c2)cc1Cl` was tested. Which “hERG current change (%, negative = inhibition) at 10uM” value did it give?
**A.** 6.62%

**Q.** How did the “hERG current change (%, negative = inhibition) at 10uM” value turn out when `CC(C)c1nc2c(c(=O)c3ccccc3n2C)c(=O)n1CCc1ccccc1` was run?
**A.** -15.8%

**Q.** With `Cc1ccc(S(=O)(=O)CCC(=O)OCc2ccc(Cl)c(Cl)c2)cc1` as the compound, how does the “hERG current change (%, negative = inhibition) at 10uM” value read?
**A.** -0.173%

**Q.** `COc1ccc(N(C(C)C(=O)Nc2ccc(S(=O)(=O)N3CCOCC3)cc2)S(C)(=O)=O)cc1` (stereo not shown) was tested. Which “hERG current change (%, negative = inhibition) at 10uM” value did it give?
**A.** 9.23%

**Q.** How did the “hERG current change (%, negative = inhibition) at 10uM” value turn out when `CCOc1ncccc1C(=O)OCC(=O)c1ccccc1` was run?
**A.** 29.5%

**Q.** `CC(C)NC(=O)NC(=O)CSc1ncccn1` was tested. Which “hERG current change (%, negative = inhibition) at 10uM” value did it give?
**A.** 15.7%

**Q.** Which “hERG current change (%, negative = inhibition) at 10uM” value does the source give for `COc1ccccc1N(CC(=O)NCCSCc1cccc(Cl)c1)S(C)(=O)=O` here?
**A.** -19.9%

**Q.** Which “hERG current change (%, negative = inhibition) at 10uM” value does the source give for `COc1ccc(C(=O)c2c(C)oc3cc([N+](=O)[O-])c(O)c([N+](=O)[O-])c23)cc1` here?
**A.** 2.71%

**Q.** Which “hERG current change (%, negative = inhibition) at 10uM” value does the source give for `CCOC(=O)C1CCN(C(=O)c2ccc(NS(=O)(=O)c3ccc(F)cc3C)cc2)CC1` here?
**A.** -30.7%

**Q.** With `COc1ccc(CN2CC=C(c3ccc(F)cc3)CC2)cc1Br` as the compound, how does the “hERG current change (%, negative = inhibition) at 10uM” value read?
**A.** -11.7%

**Q.** For `Cc1ccc(NC(=O)Cn2c(/C=C/c3ccccc3)nc3ccccc32)cc1C`, which “hERG current change (%, negative = inhibition) at 10uM” value is on record?
**A.** -0.723%

**Q.** How did the “hERG current change (%, negative = inhibition) at 10uM” value turn out when `c1ccc(OCc2nc(-c3cccs3)no2)cc1` was run?
**A.** 11.5%

**Q.** For `CCN1CCN(C(=O)C2CCN(Cc3cc(Cl)ccc3O)CC2)CC1.O=C(O)C(=O)O`, which “hERG current change (%, negative = inhibition) at 10uM” value is on record?
**A.** -6.22%

**Q.** With `COCCn1c(SCC(=O)NCc2cccs2)nnc1-c1ccc(OC)cc1` as the compound, how does the “hERG current change (%, negative = inhibition) at 10uM” value read?
**A.** 15.3%

**Q.** `COc1ccc(C(=O)OC2C[C@H]3CC[C@@H](C2)N3O)cc1OC` (stereo partly shown) was tested. Which “hERG current change (%, negative = inhibition) at 10uM” value did it give?
**A.** 15.5%

**Q.** With `COC(=O)C1(C)NCCc2c1[nH]c1ccccc21` (stereo not shown) as the compound, how does the “hERG current change (%, negative = inhibition) at 10uM” value read?
**A.** 13%

**Q.** With `COc1ccc(S(=O)(=O)Nc2c(C(=O)O)[nH]c3ccc(OC)cc23)cc1` as the compound, how does the “hERG current change (%, negative = inhibition) at 10uM” value read?
**A.** -13.6%

**Q.** With `O=C(CSc1nnc(-c2ccccc2)o1)N1CCCCC1` as the compound, how does the “hERG current change (%, negative = inhibition) at 10uM” value read?
**A.** 10.4%

**Q.** With `NNC(=O)c1cc2c(N3CCC(Cc4ccccc4)CC3)ncnc2s1` as the compound, how does the “hERG current change (%, negative = inhibition) at 10uM” value read?
**A.** -10.5%

**Q.** For `COC(=O)c1ccc[n+](CCc2c[nH]c3ccccc23)c1.[Br-]`, which “hERG current change (%, negative = inhibition) at 10uM” value is on record?
**A.** 18.2%

**Q.** How did the “hERG current change (%, negative = inhibition) at 10uM” value turn out when `CC(=O)Oc1ccc(C(=O)Nc2cccnc2)cc1` was run?
**A.** 13.1%

**Q.** `CCSc1nnc(NC(=O)c2ccc(C)o2)s1` was tested. Which “hERG current change (%, negative = inhibition) at 10uM” value did it give?
**A.** 2.45%

**Q.** For `CCOC(=O)Cc1csc(NC(=O)CCSc2ccccc2)n1`, which “hERG current change (%, negative = inhibition) at 10uM” value is on record?
**A.** 12.4%

**Q.** `CCCn1c2ccccc2c2nnc(SCc3[nH]c(=O)[nH]c3C(=O)CCCCC(=O)OCC)nc21` was tested. Which “hERG current change (%, negative = inhibition) at 10uM” value did it give?
**A.** 15%

**Q.** For `CCO[C@@H]1OC(C(=O)N2CCN(Cc3ccc4c(c3)OCO4)CC2)=C[C@H](c2cn(C(C)=O)c3ccccc23)[C@H]1CCCO`, which “hERG current change (%, negative = inhibition) at 10uM” value is on record?
**A.** -39.7%

**Q.** Which “hERG current change (%, negative = inhibition) at 10uM” value does the source give for `COc1ccccc1N1CCN(C(C)C(=O)Nc2ccc(S(=O)(=O)N3CCOCC3)cc2)CC1` (stereo not shown) here?
**A.** -4.19%

**Q.** Which “hERG current change (%, negative = inhibition) at 10uM” value does the source give for `Cc1ccccc1OC/C(O)=C(\C#N)c1nc2ccccc2[nH]1` here?
**A.** 3.54%

**Q.** How did the “hERG current change (%, negative = inhibition) at 10uM” value turn out when `Cn1c(COc2ccc(Cl)cc2)nnc1SCC(=O)NC1CC1` was run?
**A.** -10.6%

**Q.** Which “hERG current change (%, negative = inhibition) at 10uM” value does the source give for `COc1ccc(-n2c(SCC(=O)Nc3cccc4ccccc34)nc(O)cc2=O)cc1` here?
**A.** 17.2%

**Q.** Which “hERG current change (%, negative = inhibition) at 10uM” value does the source give for `O=C(c1ccc(-n2c(SCc3cc(F)ccc3F)nc3ccccc3c2=O)cc1)N1CCOCC1` here?
**A.** 8.7%

**Q.** With `CCOCCCNC(=O)C(Cc1ccccc1)NS(=O)(=O)c1ccc2c(c1)c(=O)n(C)c(=O)n2C` (stereo not shown) as the compound, how does the “hERG current change (%, negative = inhibition) at 10uM” value read?
**A.** -4.96%

**Q.** `Cc1ccc(-c2nn[nH]n2)cc1Cl` was tested. Which “hERG current change (%, negative = inhibition) at 10uM” value did it give?
**A.** 12.5%

**Q.** How did the “hERG current change (%, negative = inhibition) at 10uM” value turn out when `O=C1C2C3C=CC(C2C(=O)N1c1ccccc1O)C1C2C(=O)N(c4ccccc4O)C(=O)C2C31` (stereo not shown) was run?
**A.** 13.8%

**Q.** For `Cc1nnsc1NC(=O)OCc1ccc(Cl)cc1Cl`, which “hERG current change (%, negative = inhibition) at 10uM” value is on record?
**A.** -9.55%

**Q.** `CCOc1ccccc1OCCOCCOc1c(Cl)cccc1Cl` was tested. Which “hERG current change (%, negative = inhibition) at 10uM” value did it give?
**A.** -7.14%

**Q.** Which “hERG current change (%, negative = inhibition) at 10uM” value does the source give for `CC(C)c1nc(SCC(=O)N2CCOCC2)c2c(=O)n(C)c(=O)n(C)c2n1` here?
**A.** 0.676%

**Q.** For `CC1CCc2sc3ncn4nc(C(=O)NCc5ccco5)nc4c3c2C1` (stereo not shown), which “hERG current change (%, negative = inhibition) at 10uM” value is on record?
**A.** -9.9%

**Q.** With `CC(C)(C)C1CCc2onc(C(=O)Nc3ccc4c(c3)OCO4)c2C1` (stereo not shown) as the compound, how does the “hERG current change (%, negative = inhibition) at 10uM” value read?
**A.** 3.44%

**Q.** Which “hERG current change (%, negative = inhibition) at 10uM” value does the source give for `CC(=O)C1=C(C)NC(SCC(=O)c2ccc(Cl)c(Cl)c2)=C(C#N)C1c1ccco1` (stereo not shown) here?
**A.** 5.27%

**Q.** With `O=C(CN1C(=O)CCS(=O)(=O)c2ccccc21)NCc1ccc(F)cc1` as the compound, how does the “hERG current change (%, negative = inhibition) at 10uM” value read?
**A.** -5.6%

**Q.** With `Nc1c(C(=O)Nc2ccccc2F)sc2nc(-c3cccnc3)ccc12` as the compound, how does the “hERG current change (%, negative = inhibition) at 10uM” value read?
**A.** 20.9%
